Out of some 48,000 compounds screened, about 450 (0.94%) were called active. About 19% were inconclusive and are not listed. The call rests on the fitted dose curve; in most records, active means well fitted inhibition curve with a large enough effect; inconclusive means small, poorly fitted or top-dose-only effect; inactive means no such curve, though single readings can be large or run the other way. The list shows a part of the results.
Test: Primary qHTS for Identification of Small Molecule Inhibitors of Huntingtin Promoter Activity; further: nearly all actives have a fitted effect of over 50% in size
Details: HEK293 HTT promoter firefly luciferase reporter (activity 0% = vehicle and -100% = no light), 24 h; series mostly up to 57.5 µM; activity change, negative = inhibition: at the top concentration
Outline: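 Luminescence was read after Dual-Glo reagent and a 10 min room-temperature incubation. Values were normalized to vehicle (0% activity) and zero RLU (-100% activity). Reporter HEK293 cells had been exposed to compounds (up to 57.5 uM final) for 24 h.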
Potency means the concentration at half of the fitted maximal effect.

| SMILES | activity change, negative = inhibition | Potency |
| --- | --- | --- |
| Cn1nnnc1SCCCNCc1ccc(-c2cccc(Cl)c2)o1 | inactive: -3.1% |  |
| COc1ccc(NC(=O)CSc2nnc(-c3nonc3NC(C)=O)n2C)cc1Cl | inactive: -15.4% |  |
| Cc1ccc(-n2ccnc(NCCc3ccccc3)c2=O)cc1C | inactive: 12.1% |  |
| CCOC(=O)c1c(C)[nH]c(C)c1S(=O)(=O)N1CCCC(C(=O)Nc2ccc(OC)c(OC)c2)C1 (stereo unspecified) | inactive: -0.786% |  |
| O=c1cc2nc(-c3ccccc3F)nc(SCc3ccc(Br)cc3)n2[nH]1 | inactive: -10.1% |  |
| Cc1ccccc1-n1c2nc(=O)[nH]c(=O)c-2cc2c(Cl)cccc21 | inactive: 4.89% |  |
| COC(=O)c1cc(C)nc2c1c(=O)nc(SCc1cccc(C(F)(F)F)c1)n2C1CC1 | inactive: -15% |  |
| CCN(CC)CCCNC(=O)C(C)n1nc(C)n2c(cc3occc32)c1=O (stereo unspecified) | inactive: -15.9% |  |
| Cc1c(Cl)cccc1NC(=O)CCn1cnnn1 | inactive: -6.57% |  |
| O=C(C1CCC(CNS(=O)(=O)c2cccs2)CC1)N1CCN(c2ccc(Cl)cc2)CC1 (stereo unspecified) |  | active: 3.98 µM |
| COC(=O)c1ccccc1NC(=O)CN(c1ccc(Cl)cc1)S(=O)(=O)c1ccc(OC)cc1 | inactive: -15.4% |  |
| COc1ccc(CCNC(=O)Cn2c(=O)nc(-c3ccccc3F)c3cc(Cl)ccc32)cc1OC | inactive: 19.8% |  |
| Cc1ccc2[nH]c(CSc3nnc(C)s3)cc(=O)c2c1 | inactive: 1.18% |  |
| CCOc1ccccc1NC(=O)C1CCN(S(=O)(=O)c2cccc3nonc23)CC1 | inactive: 8.92% |  |
| O=C(Nc1cc(-c2ccc(F)c(F)c2)no1)c1ccccc1F | inactive: 43.6% |  |
| N#CC(c1ccc(Cl)cc1)c1c(Cl)cc(-n2ncc(=O)[nH]c2=O)cc1Cl (stereo unspecified) | inactive: -2.27% |  |
| CC1=C(C(=O)Nc2ccc(F)cc2)C(c2ccc(N(C)C)cc2)NC(=O)N1 (stereo unspecified) | inactive: -11.2% |  |
| CCC1CN(C(=O)C2CCN(S(=O)(=O)c3c(C)noc3/C=C/c3ccc(C)cc3)CC2)c2cc(C)ccc2O1 (stereo unspecified) | inactive: -24.5% |  |
| COCCNC(=O)CCn1c(=O)[nH]c2cc(OC)c(OC)cc2c1=O | inactive: 1.43% |  |
| CC1CCCN(c2ncnc3c2nnn3C)C1 (stereo unspecified) | inactive: 6.26% |  |
| O=C(Nc1ccc(C(F)(F)F)cc1)C1(c2cccs2)CCOCC1 | inactive: -12.2% |  |

| SMILES | activity change, negative = inhibition | Potency |
| --- | --- | --- |
| CCC1CN(C(=O)N2CCC(C(=O)NCc3ccccc3F)CC2)c2ccccc2O1 (stereo unspecified) | inactive: -19.6% |  |
| CCOc1ccc(NC(=O)c2cc(S(=O)(=O)N3CCC(C)CC3)cn2C)cc1 | inactive: -4.42% |  |
| COc1ccc(CNC(=O)Cc2ccc(NC(=O)N3CCCCc4ccccc43)cc2)cc1 | inactive: -23.3% |  |
| Cc1ccc(NC(=O)c2c(C)oc3ncnc(N4CCCCC4)c23)c(C)c1 | inactive: -26% |  |
| CC(Oc1ccccc1F)C(=O)NCC1(N2CCOCC2)CCCCC1 (stereo unspecified) | inactive: -22.9% |  |
| Cc1cc(C)cc(NC(=O)c2cc(S(=O)(=O)N3CCCCC3)c[nH]2)c1 | inactive: -1.53% |  |
| CC(C)(C)C(=O)OCOP(=O)(COCCn1cnc2c(N)ncnc21)OCOC(=O)C(C)(C)C | inactive |  |
| CCc1ccc(NC(=O)c2sc3nc(C)cc(C)c3c2NC(=O)c2ccccc2)cc1 | inactive: 20.7% |  |
| Cc1ccc(-c2nn3c(C)nnc3c3ccccc23)cc1S(=O)(=O)NC(C)(C)CO | inactive: 33.7% |  |
| Cc1ccccc1NC(=O)C1CCN(S(=O)(=O)c2cccc3nonc23)CC1 | inactive: 0.563% |  |
| CN(C)S(=O)(=O)c1ccc2c(c1)N(CC(=O)N1CCC(C(N)=O)CC1)CCS2 | inactive: -5.07% |  |
| COc1ccc(/C=C/C(=O)Nc2cccc(F)c2)cc1 | inactive: 5.96% |  |
| Cc1ccc(C)c(NC(=O)Cn2cc(S(=O)(=O)c3ccc(F)cc3)c(=O)c3cc(F)ccc32)c1 | inactive: -15.1% |  |
| Cc1cccc(C)c1NC(=O)Cn1c(=O)n(CCC(=O)NCc2ccc3c(c2)OCO3)c(=O)c2sccc21 | inactive: -12.8% |  |
| COc1ccc(-c2cc(C(F)(F)F)n3nc(C(=O)Nc4ccc(Cl)cc4C(F)(F)F)cc3n2)cc1OC | inactive: -11.4% |  |
| COc1ccc(C(=O)N2CCN(CCc3ccccn3)CC2)cc1 | inactive: -16% |  |
| Cc1oc(-c2ccccc2)nc1Cn1c(=O)cc(-c2ccccc2)c2c(C)nn(C)c21 | inactive: -9.7% |  |
| Cc1ccc(NC(=O)c2cnc(SCC(=O)N3CCCc4ccccc43)n(C)c2=O)cc1C | inactive: -14.8% |  |
| CC(C)CN(CC(C)C)c1nnc(NC(=O)Nc2cccc(C(F)(F)F)c2)s1 | inactive: -21.9% |  |
| COc1ccc(OCC(=O)Nc2ccc3c(c2)N(C)C(=O)c2ccccc2S3)cc1 | inactive: -26.3% |  |
| COc1ccc(-c2cc(C(=O)Nc3c(C(=O)c4ccc(C)c(F)c4)oc4ccccc34)no2)cc1 | inactive: 20% |  |

| SMILES | activity change, negative = inhibition | Potency |
| --- | --- | --- |
| Cc1ccc2nc(Cl)c3cc(C(=O)N4CCCC(C)C4)sc3c2c1 (stereo unspecified) | inactive: -21.3% |  |
| CCn1c(=O)c2cc(C(=O)NCCc3ccc(OC)c(OC)c3)sc2c2ccccc21 | inactive: -12.3% |  |
| COC(=O)Cn1c(SCCOc2ccccc2Cl)nc2ccccc21 | inactive: 1.37% |  |
| O=C(CCS(=O)(=O)c1nc(-c2ccc3c(c2)OCO3)cc(C(F)(F)F)n1)Nc1ccccc1C(F)(F)F | inactive: -19.2% |  |
| CCOC(=O)c1cc(-c2ccc(C)cc2)n(CC(=O)Nc2cc(C)ccc2C)c1C | inactive: -6.9% |  |
| COc1ccc(-c2cc(C(F)(F)F)n3nc(C(=O)Nc4cccc(Cl)c4Cl)cc3n2)cc1OC | inactive: -20.3% |  |
| CC1=C(C(=O)Nc2ccc(C)cc2C)C(c2cc(Br)ccc2F)n2ncc(C(=O)Nc3ccc(C)cc3)c2N1 (stereo unspecified) | inactive: -25.8% |  |
| CCc1ccccc1NC(=O)c1cc(S(=O)(=O)N2CCC(C)CC2)cn1C | inactive: -20.2% |  |
| CCOc1ccc(NC(=O)Cn2cc(C(=O)c3ccccc3)c(=O)c3cc(OC)ccc32)cc1 | inactive: -12% |  |
| COC(=O)c1cc(NC(=O)CCc2c(C)nc3nc(C)nn3c2C)cc(C(=O)OC)c1 | inactive: -4.75% |  |
| CCCCn1c(SCc2ccccc2C#N)nc2c(sc3ccccc32)c1=O | inactive: -19.2% |  |
| CC1=C(C(=O)Nc2ccccc2C)C(c2ccc[nH]2)n2ncnc2N1 (stereo unspecified) | inactive: 7.15% |  |
| Cc1ccc(-n2ncc3c(=O)n(Cc4cccc(C(F)(F)F)c4)cnc32)cc1C | inactive: -15.1% |  |
| CCOC(=O)Cn1c(=O)cc(C)c2c(C)nn(-c3cccc(F)c3)c21 | inactive: -4.08% |  |
| Cc1ccc2c(c1)-c1onc(C(=O)N(C)c3ccc(F)cc3)c1CO2 | inactive: 23.4% |  |
| Cc1cccc(CC(=O)Nc2cccc(-c3cn4cccnc4n3)c2)c1 | inactive: 16.2% |  |
| O=C(NCc1ccc2c(c1)CCN2C(=O)c1ccncc1)c1cccc(F)c1 | inactive: -4.08% |  |
| CCOC(=O)c1[nH]c(C)c(C(=O)NCc2ccccc2Cl)c1C | inactive: -17.6% |  |
| O=C(CCc1nnc2n(Cc3ccccc3Cl)c(=O)c3ccccc3n12)Nc1ccccc1 | inactive: -3.68% |  |

From PubChem BioAssay AID1508623 (National Center for Advancing Translational Sciences (NCATS), 2021)
